The supplement of paper PMC4604168 (melanoma cell lines)
The other results are listed elsewhere or left out. Repeats are few or missing, and single values can be far off.

Columns and labels:
Assay in all cases: cell count relative to DMSO control; melanoma cells; higher = more viable cells
Details in all cases: library dose: standard library concentration; 72 h
G361 = test system: G361
IPC-298 = test system: IPC-298
IST-MEL1 = test system: IST-MEL1
LB2518-MEL = test system: LB2518-MEL
LOXIMVI = test system: LOXIMVI
MEL-HO = test system: MEL-HO
MZ2-MEL = test system: MZ2-MEL
MeWo = test system: MeWo
RPMI7951 = test system: RPMI7951
RVH-421 = test system: RVH-421
SkMel28 = test system: SkMel28
SkMel2 = test system: SkMel2
SkMel30 = test system: SkMel30
SkMel5 = test system: SkMel5
UACC257 = test system: UACC257
UACC62 = test system: UACC62
WM115 = test system: WM115
WM1716 = test system: WM1716
WM3526 = test system: WM3526
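Also: cells treated in 1,536-well plates, then fixed and DAPI-stained, with nuclei counted from automated high-throughput microscope images.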

Compound | cell count (G361) [%] | cell count (IPC-298) [%] | cell count (IST-MEL1) [%] | cell count (LB2518-MEL) [%] | cell count (LOXIMVI) [%] | cell count (MEL-HO) [%] | cell count (MZ2-MEL) [%] | cell count (MeWo) [%] | cell count (RPMI7951) [%] | cell count (RVH-421) [%] | cell count (SkMel28) [%] | cell count (SkMel2) [%] | cell count (SkMel30) [%] | cell count (SkMel5) [%] | cell count (UACC257) [%] | cell count (UACC62) [%] | cell count (WM115) [%] | cell count (WM1716) [%] | cell count (WM3526) [%]
CC(=O)O[C@@]12CO[C@@H]1C[C@H](O)[C@@]1(C)C(=O)[C@H](O)C3=C(C)[C@@H](OC(=O)[C@H](O)[C@@H](NC(=O)OC(C)(C)C)c4ccccc4)C[C@@](O)([C@@H](OC(=O)c4ccccc4)[C@H]21)C3(C)C [Docetaxel] + O=C1NC(=O)/C(=C/c2ccc(-c3ccc(F)cc3O)o2)S1 [AS252424] (first compound 0.0005 µM, partner dose 5 µM) | 12.6 | 45.8 | 56.2 | 53.2 | 48.7 | 42.4 | 50.2 | 25.4 | 35.7 | 11.7 | 15.3 | 17.8 | 43.4 | 39.6 | 53.3 | 58.6 | 39.7 | 36.1 | 37
CO[C@H]1C[C@@H]2CC[C@@H](C)[C@@](O)(O2)C(=O)C(=O)N2CCCC[C@H]2C(=O)O[C@H]([C@H](C)C[C@@H]2CC[C@@H](OCCO)[C@H](OC)C2)CC(=O)[C@H](C)/C=C(\C)[C@@H](O)[C@@H](OC)C(=O)[C@H](C)C[C@H](C)/C=C/C=C/C=C/1C [everolimus] + Cn1cc(/C=C2\C(=O)Nc3cccnc32)c2ccccc21 [GW441756] (first compound 0.1 µM, partner dose 2 µM) | 57.7 | 58.1 | 71.3 | 70.5 | 73.3 | 63.2 | 68.8 | 68.7 | 69.9 | 79.9 | 42.8 | 61.6 | 77.5 | 51.2 | 72.8 | 67.9 | 59.4 | 71.4 | 67.9
Nc1ncn([C@H]2C[C@H](O)[C@@H](CO)O2)c(=O)n1 [decitabine] + COc1cc2ncnc(Nc3ccc(Oc4ccccc4)cc3)c2cc1OC [SrcI1] (first compound 0.5 µM, partner dose 10 µM) | 79.5 | 60.1 | 102 | 95.8 | 88.2 | 96.3 | 78.4 | 82.9 | 63.6 | 89.7 | 63 | 85.4 | 115 | 73.8 | 108 | 62.1 | 75.6 | 80.3 | 75.1
Nc1ccn([C@@H]2O[C@H](CO)[C@@H](O)C2(F)F)c(=O)n1 [gemcitabine] + c1cc(-c2cnn3cc(-c4ccc(OCCN5CCCCC5)cc4)cnc23)ccn1 [Dorsomorphin] (first compound 0.002 µM, partner dose 2 µM) | 45.6 | 55.4 | 50.6 | 64 | 84.5 | 59.3 | 69.8 | 35.3 | 53.6 | 85.1 | 95.7 | 108 | 76.7 | 77.1 | 79.3 | 66.6 | 69 | 69.3 | 98.1
CC(=O)O[C@@]12CO[C@@H]1C[C@H](O)[C@@]1(C)C(=O)[C@H](O)C3=C(C)[C@@H](OC(=O)[C@H](O)[C@@H](NC(=O)OC(C)(C)C)c4ccccc4)C[C@@](O)([C@@H](OC(=O)c4ccccc4)[C@H]21)C3(C)C [Docetaxel] + O=C(Nc1ccccc1)c1cc([N+](=O)[O-])ccc1Cl [GW9662] (first compound 0.0005 µM, partner dose 10 µM) | 10.8 | 50.8 | 55.3 | 44.1 | 58.2 | 40.1 | 50.6 | 17.4 | 24.2 | 46.8 | 6.48 | 18.6 | 50 | 46.7 | 72.5 | 69.9 | 37.5 | 36.7 | 34.7
CO[C@H]1C[C@@H]2CC[C@@H](C)[C@@](O)(O2)C(=O)C(=O)N2CCCC[C@H]2C(=O)O[C@H]([C@H](C)C[C@@H]2CC[C@@H](OCCO)[C@H](OC)C2)CC(=O)[C@H](C)/C=C(\C)[C@@H](O)[C@@H](OC)C(=O)[C@H](C)C[C@H](C)/C=C/C=C/C=C/1C [everolimus] + COc1cc2ncnc(Nc3ccc(Oc4ccccc4)cc3)c2cc1OC [SrcI1] (first compound 0.1 µM, partner dose 10 µM) | 36.7 | 56.2 | 82 | 86 | 79.8 | 64.2 | 74.1 | 51.4 | 42.6 | 105 | 47 | 80.5 | 59.8 | 62.2 | 86.3 | 53.3 | 69.1 | 59.8 | 58
CO[C@H]1C[C@@H]2CC[C@@H](C)[C@@](O)(O2)C(=O)C(=O)N2CCCC[C@H]2C(=O)O[C@H]([C@H](C)C[C@@H]2CC[C@@H](OCCO)[C@H](OC)C2)CC(=O)[C@H](C)/C=C(\C)[C@@H](O)[C@@H](OC)C(=O)[C@H](C)C[C@H](C)/C=C/C=C/C=C/1C [everolimus] + O=C(Nc1ccccc1)c1cc([N+](=O)[O-])ccc1Cl [GW9662] (first compound 0.1 µM, partner dose 10 µM) | 59.7 | 73.5 | 87.3 | 65.4 | 138 | 71.1 | 73.3 | 62.6 | 69.9 | 70.7 | 36.8 | 61.4 | 56.1 | 63.2 | 72.4 | 87 | 83.2 | 72.9 | 71.2
CC(=O)c1c(C)c2cnc(Nc3ccc(N4CCNCC4)cn3)nc2n(C2CCCC2)c1=O [palbociclib] + CCCCCCCCCCCC1=C(O)C(=O)C=C(O)C1=O [Embelin] (first compound 0.2 µM, partner dose 6 µM) | 57.3 | 42.9 | 45.3 | 47 | 88.9 | 62.8 | 44.3 | 63.6 | 52.9 | 50 | 36 | 56.2 | 59.9 | 39 | 69.3 | 70.4 | 46.9 | 35.6 | 37.6
Nc1nc(F)nc2c1ncn2[C@@H]1O[C@H](CO)[C@@H](O)[C@@H]1O [fludarabine] + Oc1cc(-c2nc(-c3ccccc3)[nH]c2-c2ccncc2)ccc1Cl [L779450] (first compound 1 µM, partner dose 1 µM) | 60.2 | 66 | 65.5 | 83.4 | 93.8 | 66.3 | 89.4 | 68.5 | 61.6 | 90.3 | 1.01 | 0.861 | 11.1 | 23.7 | 24 | 41.2 | 47.9 | 76 | 20.7
Nc1ncn([C@H]2C[C@H](O)[C@@H](CO)O2)c(=O)n1 [decitabine] + CC(C)CCN1c2nc(Nc3cc(F)c(O)c(F)c3)ncc2N(C)C(=O)C1C [BID1870] (first compound 0.5 µM, partner dose 1 µM) | 65.8 | 68.4 | 74.2 | 79.9 | 76 | 70.5 | 120 | 63.6 | 60.8 | 77.2 | 61.7 | 86.7 | 88.6 | 80.7 | 100 | 60.5 | 84.5 | 64.8 | 70.7
Nc1ccn([C@@H]2O[C@H](CO)[C@@H](O)C2(F)F)c(=O)n1 [gemcitabine] + CC(C)CCN1c2nc(Nc3cc(F)c(O)c(F)c3)ncc2N(C)C(=O)C1C [BID1870] (first compound 0.002 µM, partner dose 1 µM) | 50.5 | 53.2 | 43.2 | 72.9 | 89.6 | 58 | 73.1 | 57.5 | 67.5 | 72.7 | 60.3 | 74.8 | 85.7 | 74.1 | 92.3 | 70.3 | 92.3 | 64.1 | 64.1
CC(=O)O[C@@]12CO[C@@H]1C[C@H](O)[C@@]1(C)C(=O)[C@H](O)C3=C(C)[C@@H](OC(=O)[C@H](O)[C@@H](NC(=O)OC(C)(C)C)c4ccccc4)C[C@@](O)([C@@H](OC(=O)c4ccccc4)[C@H]21)C3(C)C [Docetaxel] + O=C(O)C(=O)Nc1sc2c(c1C(=O)O)CCNC2 [TCS401] (first compound 0.0005 µM, partner dose 8.33333 µM) | 19.6 | 37.6 | 43.1 | 44.3 | 60.4 | 36.4 | 43 | 20.1 | 24.9 | 59.6 | 15 | 12.7 | 49 | 39.5 | 71.1 | 71.3 | 37.6 | 38 | 40.5
Nc1ncn([C@H]2C[C@H](O)[C@@H](CO)O2)c(=O)n1 [decitabine] + O=S(=O)(c1ccccc1)N(CC(F)(F)F)c1ccc(C(O)(C(F)(F)F)C(F)(F)F)cc1 [T0901317] (first compound 0.5 µM, partner dose 7 µM) | 77.8 | 45 | 73.3 | 96.6 | 97.8 | 68.8 | 73.1 | 55.7 | 68.5 | 78.9 | 67.6 | 93.4 | 95 | 57.6 | 75.6 | 73.3 | 70.3 | 69.6 | 83.7
CO[C@H]1C[C@@H]2CC[C@@H](C)[C@@](O)(O2)C(=O)C(=O)N2CCCC[C@H]2C(=O)O[C@H]([C@H](C)C[C@@H]2CC[C@@H](OCCO)[C@H](OC)C2)CC(=O)[C@H](C)/C=C(\C)[C@@H](O)[C@@H](OC)C(=O)[C@H](C)C[C@H](C)/C=C/C=C/C=C/1C [everolimus] + Oc1nc(-c2ccc(C(F)(F)F)cc2)nc2c1CSCC2 [XAV939] (first compound 0.1 µM, partner dose 10 µM) | 64.6 | 66.8 | 89.5 | 59.6 | 87.5 | 71 | 78.5 | 62.3 | 87 | 74.2 | 36.2 | 61 | 67.2 | 33.7 | 68.6 | 59.7 | 70.1 | 47.7 | 77.2
CC(=O)c1c(C)c2cnc(Nc3ccc(N4CCNCC4)cn3)nc2n(C2CCCC2)c1=O [palbociclib] + COC(=O)c1sccc1S(=O)(=O)Nc1ccc(Nc2ccccc2)cc1OC [GSK0660] (first compound 0.2 µM, partner dose 5 µM) | 77 | 66.2 | 71.5 | 60.9 | 90.8 | 74 | 56.2 | 56.2 | 67 | 63.9 | 45.5 | 53.9 | 55.7 | 46.7 | 80.5 | 56.3 | 54.6 | 41 | 44.4
